The values below come from the supplement of paper PMC9446081.

SMILES strings stand for the structures. Screen size: about 39,000 compounds; about 220 (0.56%) showed activity. The list shows a part of the results.
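Note: static incubation at 37 °C against the wild-type strain, values averaged over two biological replicates.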

This assay relates to Escherichia coli K-12 BW25113. In words: relative growth (OD600 normalised to plate interquartile mean) (fraction); higher = less growth inhibition, active = 0.2 or less. The note with it: 50 µM; LB; incubation time: overnight (16-24 h).
Consider `O=C(C[C@@H]1CC[C@@H](NC(=O)CN2CCOCC2)[C@@H](CO)O1)NCc1cccc(F)c1`, for which the relative growth was inactive: 1.01.
Consider `C[C@@H]1CCCCO[C@@H](CN(C)Cc2ccc(C(F)(F)F)cc2)[C@H](C)CN([C@H](C)CO)C(=O)c2cc(NS(=O)(=O)c3cn(C)cn3)ccc2O1`, for which the relative growth was inactive: 0.989.
The result for `Cc1ccc(S(=O)(=O)N(C)C[C@@H]2OCCCC[C@H](C)Oc3ccc(NC(=O)c4ccccc4)cc3C(=O)N([C@H](C)CO)C[C@@H]2C)cc1` reads inactive: 1.02.
Turning to `C[C@H]1CN([C@@H](C)CO)C(=O)c2cc(C#CC3(O)CCCC3)cnc2O[C@H]1CN(C)S(=O)(=O)c1cccc(F)c1`, the relative growth was inactive: 1.
The result for `CN(CC(=O)Nc1ccc(F)cc1F)S(=O)(=O)c1ccc2c(c1)c(=O)n(C)c(=O)n2C` reads inactive: 1.04; that for `C[C@@H]1CN([C@@H](C)CO)C(=O)c2cccc(NS(C)(=O)=O)c2O[C@@H]1CN(C)C(=O)Nc1ccc(F)cc1`, inactive: 0.989.
Consider `NCc1cccc(-n2cccn2)c1`, for which the relative growth was inactive: 1.01.
The result for `C[C@H]1Cc2cc(S(=O)(=O)N(C)CC(=O)N3CCOCC3)ccc2N1C(=O)C1CC1` reads inactive: 1; that for `Cc1noc(C)c1S(=O)(=O)Nc1ccc2c(c1)C(=O)N([C@H](C)CO)C[C@H](C)[C@H](CN(C)C(=O)Nc1ccccc1)OCCCC[C@@H](C)O2`, inactive: 1; that for `Cc1ccc(S(=O)(=O)Nc2cccc3c2O[C@@H](CN(C)Cc2ccc(Oc4ccccc4)cc2)[C@H](C)CN([C@@H](C)CO)C3=O)cc1`, inactive: 1.05.
The result for `C[C@H](CO)N1C[C@H](C)[C@H](CN(C)S(=O)(=O)c2ccc(F)cc2)Oc2ccc(NC(=O)Nc3cccc4ccccc34)cc2C1=O` reads inactive: 1.03.
Consider `Cc1noc(C)c1NC(=O)Nc1ccc2c(c1)C(=O)N([C@@H](C)CO)C[C@H](C)[C@@H](CN(C)C(=O)Nc1cccc3ccccc13)O2`, for which the relative growth is inactive: 1.01.
The result for `C[C@@H]1CN([C@@H](C)CO)C(=O)CCCn2nncc2CO[C@H]1CN(C)Cc1ccc(C(=O)Nc2ccccc2N)cc1` reads inactive: 0.987; that for `C[C@@H]1CN([C@H](C)CO)C(=O)Cc2cc(NS(=O)(=O)c3cccs3)ccc2O[C@H]1CN(C)Cc1ccc(Oc2ccccc2)cc1`, inactive: 0.994; that for `COc1ccc(S(=O)(=O)N(C)C[C@H]2Oc3ccc(NC(=O)Cc4ccccc4)cc3C(=O)N([C@H](C)CO)C[C@H]2C)cc1`, inactive: 1.03.
The result for `CN1C(=O)C[C@H](Nc2ccc(N(C)C)cc2)C1=O` reads inactive: 0.983; that for `N=c1cc(N2CCCCC2)nc(N)n1OS(=O)(=O)O`, inactive: 0.993.
